# Some of the results follow.
# T1: UNK ZnF1-6 (called full-length) (human, UniProt Q9C0B0 30-357)
# T1 sequence: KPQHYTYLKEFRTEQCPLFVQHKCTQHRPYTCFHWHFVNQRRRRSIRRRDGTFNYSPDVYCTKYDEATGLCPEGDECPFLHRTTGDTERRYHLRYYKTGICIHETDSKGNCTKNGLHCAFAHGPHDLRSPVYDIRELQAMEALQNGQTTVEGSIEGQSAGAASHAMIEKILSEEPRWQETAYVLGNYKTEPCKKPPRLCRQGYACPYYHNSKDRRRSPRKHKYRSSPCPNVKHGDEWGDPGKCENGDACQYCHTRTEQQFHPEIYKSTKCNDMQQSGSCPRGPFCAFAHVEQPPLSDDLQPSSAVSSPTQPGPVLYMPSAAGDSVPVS
# B1: chr19:37127587:37127689:+|CDS|ENSG00000197050|unk|total|mutant (ssRNA)
# RNA: GGGAGUUCUACAGUCCGACGAUCUAUGCAUGUAAGGAAUGUGGGAAGGCCUUUACUCAAAGCUCACAACUUAUUUUACAUCACCGAAUUCAUACUGGUGAAAAACCAUAUAAAUGUGAAGAAUGUGGGAAAGCCUUUAUUCGUCAACAGAGGAUUGAGCAUCA
# B2: chr9:76611375:76614569:-|three_prime_utr|ENSG00000106772|control|control|control (ssRNA)
# RNA: GGGAGUUCUACAGUCCGACGAUCAUGUUACCUUUUUCCACUUUGCACUACCUGGUGCCAUUCUAAAUUUCUAAGGGGAAAAAUAGAAAGUUUGUUUACUCUUAAGAUAUUUUAUGAAAUUGUGUGUACUUUCCUAUUUUGCCACAACAGAGGAUUGAGCAUCA
# B3: chr2:227556236:227556337:+|3pUTR|ENSG00000173744|msi1|total|mutant (ssRNA)
# RNA: GGGAGUUCUACAGUCCGACGAUCUGUUGAAUGCCUUUUUGCAAUGAUGACUGAGUUGUUAUCACCGUAUUUUAAAACCUGUACCGUGUUUCCGACUUGUUAAAACAUUGCUGUCCCGUGUACAUCCCGCUAAAAGUGUGGUUUCAACAGAGGAUUGAGCAUCA
# B4: chr1:202726062:202726163:-|3pUTR|ENSG00000117139|unk|FALSE|unique (ssRNA)
# RNA: GGGAGUUCUACAGUCCGACGAUCGAAAUGCACCUGAUUUGCCAUUAUACCCACCAUCAAAAGCAACAUGGCCCUUUGGGUAUUAGUGCAAGAUUAGCCUAAGAAUAGAGUAGAUCUCUACCUGGAAGAGGGUGAAACAUGGCUCAACAGAGGAUUGAGCAUCA
# B5: chr5:171862525:171862626:-|3pUTR|ENSG00000072803|msi1|FALSE|unique (ssRNA)
# RNA: GGGAGUUCUACAGUCCGACGAUCGACAGUGCAUGGAAAGGACGUUGGCAUCCAAUUGGCACUCCUUCUCCCUUAUUCAAUAUUAGGUUUGAUUUGCCCUUCGCCAUUGUUUCCAAAGAUCAAGGAAUGUCAAUAACAUUUUAACAACAGAGGAUUGAGCAUCA
# B6: ENSG00000029725:stop:overlap|stop_codon|ENSG00000029725|stop_codon|NA|stop_codon (ssRNA)
# RNA: GGGAGUUCUACAGUCCGACGAUCAAAAUGAAAUGAAAAAGGAUCCCAUCCAGGAUACCAUAUUGCAUUUAGUUGUGUCUCCUUAGAUGCCUCUUGGCUGUGACAGUUUCUCAGAUUUUUCUUGUUUUUAAUGACCUUUCUGUCCAACAGAGGAUUGAGCAUCA
# Biological target: T1, UNK ZnF1-6 (called full-length)
# Assay: nsRBNS (natural sequence RNA bind-n-seq); RBNS binding buffer (assumed for nsRBNS): 25 mM Tris pH 7.5, 150 mM KCl, 3 mM MgCl2, 0.01% Triton X-100, 500 ug/ml BSA, 20 U/ml SUPERase-In, 4 C; UNK is unkempt and MSI1 is Musashi-1; names of the RNAs are library labels; protein concentration not given here; high values mean tight binding
row,Binder,binding signal [enrichment R]
1,B1,0.323
2,B2,0.818
3,B3,0.259
4,B4,0.635
5,B5,0.962
6,B6,0.907
